# Some of the results follow.
# Test system: T1, Caupolican (Caup) homeodomain DNA-binding domain
# T1 sequence: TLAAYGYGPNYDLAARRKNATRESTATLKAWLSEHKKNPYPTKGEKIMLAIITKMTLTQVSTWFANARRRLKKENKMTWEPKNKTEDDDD
# Test: PBM E-score (8-mer, recovered from the published 9-mer minima) (E-score (dimensionless, -0.5 to 0.5)); Drosophila protein; higher = stronger relative binding preference, active = 0.31 or more
# Outline: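 An enrichment score, with higher meaning stronger, expresses relative binding preference for each short DNA word. The protein used was Caup's homeodomain DNA-binding domain (residues 214-303), produced by in vitro transcription and translation and tested at 100 nM on custom-designed protein binding microarrays. The 8-mer values were recovered from published 9-mer scores, each equal to the lower of its two constituent 8-mer scores.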
row,Sequence,PBM E-score
1,CGAACAGA,inactive: 0.126
2,GAAGATCA,inactive: 0.0158
3,GCGATGCA,inactive: -0.136
4,AACTATAC,inactive: 0.14
5,AACGTTAC,inactive: 0.1
6,GGGTGACC,inactive: -0.223
7,CCTGGGAG,inactive: -0.195
8,CGAGGATC,inactive: -0.0233
9,AAGGGCTA,inactive: -0.0555
10,AGGCGCTA,≥ -0.0508
11,ACGCACAG,inactive: -0.0279
12,CTTGCACC,inactive: -0.027
13,CACTCATG,inactive: 0.0716
14,CCGCCCAC,inactive: -0.192
15,GACATTCC,inactive: 0.186
16,CAAAACAA,inactive: 0.188
17,GGCGGGTA,inactive: -0.156
18,AAGGATGT,inactive: 0.185
19,AGTTCATC,inactive: 0.0305
20,AAGGATCC,inactive: -0.0547
21,AATGATTA,≥ 0.239

row,Sequence,PBM E-score
1,CGTCTCGA,inactive: 0.0714
2,GGCGACAC,inactive: 0.0375
3,GTCTATGA,inactive: 0.0569
4,CCGGCAAG,inactive: -0.146
5,AAATATTG,inactive: 0.0593
6,AGGCTAAA,inactive: -0.0788
7,CACCGTTA,inactive: 0.0313
8,CGCCATCC,inactive: -0.134
9,GTAAACAA,active: 0.321
10,GTGTCTTA,inactive: 0.17
11,ACCATAGT,inactive: 0.042
12,GCTATACA,inactive: 0.189
13,CACTCCAA,inactive: -0.071
14,ATAGCTCC,inactive: -0.0652
15,CAAAAGTC,inactive: -0.0435
16,ATGGGAAA,inactive: -0.0244
17,GAATAGTC,inactive: -0.00141
18,TATCCCCA,inactive: -0.0238
19,GCGTAATA,inactive: 0.076
20,AGTACGCG,inactive: -0.00986
21,GACTCGGC,inactive: -0.192

row,Sequence,PBM E-score
1,CTTCCGGA,inactive: -0.173
2,AAGATCCA,inactive: -0.0566
3,CTTTCTTA,inactive: 0.0085
4,GTTCAATA,inactive: 0.0594
5,AACCTCTG,inactive: -0.105
6,CCCTCCCA,≥ -0.108
7,AACAAGTA,active: 0.33
8,CCTGGGAC,inactive: -0.148
9,CGGGGTCA,inactive: -0.182
10,TGCGCCAA,inactive: -0.179
11,GGAAAGAA,inactive: -0.0877
12,ATGGTATA,inactive: 0.167
13,ACTGGGTC,inactive: -0.127
14,TGGCGCCA,inactive: -0.205
15,ATAACATC,active: 0.318
16,ACTACGCC,inactive: -0.114
17,CAATAGCA,inactive: 0.0185
18,CCCCTTAC,inactive: -0.119
19,AATTTACA,active: 0.328
20,AGTATACG,inactive: 0.0742

# From the supplement of paper PMC3724861
